The values that follow come from the supplement of paper PMC12217912.

The other results are listed elsewhere or left out. The full chains were built here from the parent and the listed change. Inactive controls read about 0.05.

Sequences and labels used below:
B1: TEV protease; numbered along this chain (parent)
chain: MGESLFKGPRDYNPISSSICHLTNESDGHTTSLYGIGFGPFIITNKHLFRRNNGTLVVQSLHGVFKVKDTTTLQQHLVDGRDMIIIRMPKDFPPFPQKLKFREPQREERICLVTTNFQTKSMSSMVSDTSCTFPSGDGIFWKHWIQTKDGQCGSPLVSTRDGFIVGIHSASNFTNTNNYFTSVPKNFMELLTNQEAQQWVSGWRLNADSVLWGGHKVFMVKPEEPFQPVKEATQL

Variants of B1 are the subject of the assay. Kind of assay: raw area under fraction-flipped curve 0-4 h after induction (AUC4h, not background-subtracted), DNA-recorder readout of cleavage of the substrate (dimensionless); higher = more cleavage of the substrate by the protease variant. The following applies: temperature: 34 °C; time window: 0-4 h after rhamnose induction. As to the method:
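In vivo DNA recorder in E. coli TOP10(DE3) ΔrhaA at 34 °C. Each TEVp single-site mutant (parent TEVp 0) is paired with a single-site variant of the 7-mer TEVs (canonical ENLYFQ|S). The substrate sits between flexible linkers in a Bxb1-sfGFP-TEVs-SsrA fusion, so cleavage stabilises Bxb1 and speeds flipping of a recombination array, read by NGS. The value is the raw area under the fraction-flipped curve over 0-4 h after rhamnose induction (AUC4h), with ≥20 reads per time point. It is not background-subtracted; inactive controls average about 0.047.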
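Further: Bxb1 expression induced with 0.2% (w/v) L-rhamnose at OD600 near 0.5, cultures sampled hourly, flipped fraction per protease–substrate barcode pair counted by paired-end Illumina sequencing.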

Turning to MGESLFKGPRDYNPISSSICHLTNESDGHTTSLYGIGFGPFIITNKHLFRRNAGTLVVQSLHGVFKVKDTTTLQQHLVDGRDMIIIRMPKDFPPFPQKLKFREPQREERICLVTTNFQTKSMSSMVSDTSCTFPSGDGIFWKHWIQTKDGQCGSPLVSTRDGFIVGIHSASNFTNTNNYFTSVPKNFMELLTNQEAQQWVSGWRLNADSVLWGGHKVFMVKPEEPFQPVKEATQL [N53A], the “area with substrate EALYFQS” value worked out at 0.106, the “area with substrate ECLYFQS” value is 0.088, the “area with substrate EDLYFQS” value is 0.134 and the “area with substrate EELYFQS” value stood at 0.0406. Moreover, the “area with substrate EGLYFQS” value was 0.0872, the “area with substrate EHLYFQS” value came out at 0.0862, the “area with substrate EILYFQS” value worked out at 0.0798 and the “area with substrate EKLYFQS” value was determined as 0.089. In addition, the “area with substrate ELLYFQS” value is 0.0692, the “area with substrate EMLYFQS” value was determined as 0.0888, the “area with substrate EPLYFQS” value amounted to 0.116 and the “area with substrate EQLYFQS” value was determined as 0.122. Besides, the “area with substrate ERLYFQS” value turned out to be 0.0844, the “area with substrate ESLYFQS” value was determined as 0.0888, the “area with substrate EVLYFQS” value was 0.0781 and the “area with substrate EWLYFQS” value stood at 0.0715.
For MGESLFKGPRDYNPISSSICHLTNESDGHTTSLYGIGFGPFIITNKHLFRRNGGTLVVQSLHGVFKVKDTTTLQQHLVDGRDMIIIRMPKDFPPFPQKLKFREPQREERICLVTTNFQTKSMSSMVSDTSCTFPSGDGIFWKHWIQTKDGQCGSPLVSTRDGFIVGIHSASNFTNTNNYFTSVPKNFMELLTNQEAQQWVSGWRLNADSVLWGGHKVFMVKPEEPFQPVKEATQL [N53G], the “area with substrate EALYFQS” value amounted to 0.0819, the “area with substrate ECLYFQS” value turned out to be 0.0825, the “area with substrate EDLYFQS” value came out at 0.115 and the “area with substrate EELYFQS” value came out at 0.102. Moreover, the “area with substrate EFLYFQS” value turned out to be 0.0901, the “area with substrate EGLYFQS” value stood at 0.0838, the “area with substrate EHLYFQS” value worked out at 0.068 and the “area with substrate EILYFQS” value was found to be 0.0937. For the same variant, the “area with substrate EKLYFQS” value turned out to be 0.121, the “area with substrate ELLYFQS” value came to 0.0954, the “area with substrate EMLYFQS” value is 0.0892 and the “area with substrate EQLYFQS” value amounted to 0.0978. Moreover, the “area with substrate ERLYFQS” value was determined as 0.0908, the “area with substrate ESLYFQS” value worked out at 0.0911, the “area with substrate ETLYFQS” value stood at 0.103 and the “area with substrate EVLYFQS” value is 0.0841. In addition, the “area with substrate EWLYFQS” value came out at 0.0837 and the “area with substrate EYLYFQS” value was 0.0765.
With MGESLFKGPRDYNPISSSICHLTNESDGHTTSLYGIGFGPFIITNKHLFRRMNGTLVVQSLHGVFKVKDTTTLQQHLVDGRDMIIIRMPKDFPPFPQKLKFREPQREERICLVTTNFQTKSMSSMVSDTSCTFPSGDGIFWKHWIQTKDGQCGSPLVSTRDGFIVGIHSASNFTNTNNYFTSVPKNFMELLTNQEAQQWVSGWRLNADSVLWGGHKVFMVKPEEPFQPVKEATQL [N52M], the “area with substrate EALYFQS” value worked out at 0.0387, the “area with substrate ECLYFQS” value was 0.0803, the “area with substrate EELYFQS” value turned out to be 0.0371 and the “area with substrate EGLYFQS” value came to 0.0553. For the same variant, the “area with substrate EILYFQS” value worked out at 0.0538, the “area with substrate EMLYFQS” value amounted to 0.0382, the “area with substrate EQLYFQS” value was 0.0691 and the “area with substrate ERLYFQS” value turned out to be 0.0675. The “area with substrate ESLYFQS” value was found to be 0.0568, the “area with substrate EVLYFQS” value was found to be 0.0654 and the “area with substrate EYLYFQS” value is 0.0654.
Take MGESLFKGPRDYNPISSSICHLTNESDGHTTSLYGIGFGPFIITNKHLFRRYNGTLVVQSLHGVFKVKDTTTLQQHLVDGRDMIIIRMPKDFPPFPQKLKFREPQREERICLVTTNFQTKSMSSMVSDTSCTFPSGDGIFWKHWIQTKDGQCGSPLVSTRDGFIVGIHSASNFTNTNNYFTSVPKNFMELLTNQEAQQWVSGWRLNADSVLWGGHKVFMVKPEEPFQPVKEATQL [N52Y]: the “area with substrate EALYFQS” value amounted to 0.0926, the “area with substrate ECLYFQS” value was 0.0692, the “area with substrate EDLYFQS” value stood at 0.0804 and the “area with substrate EELYFQS” value was 0.0735. Further, the “area with substrate EFLYFQS” value came out at 0.0653, the “area with substrate EGLYFQS” value is 0.064, the “area with substrate EHLYFQS” value is 0.0851 and the “area with substrate EILYFQS” value was 0.0617. The “area with substrate EKLYFQS” value came out at 0.0798, the “area with substrate ELLYFQS” value stood at 0.0549, the “area with substrate EMLYFQS” value stood at 0.0696 and the “area with substrate EQLYFQS” value was found to be 0.116. The “area with substrate ERLYFQS” value stood at 0.0642, the “area with substrate ESLYFQS” value came out at 0.0779, the “area with substrate EVLYFQS” value turned out to be 0.0621 and the “area with substrate EYLYFQS” value was found to be 0.0693.
Regarding MGESLFKGPRDYNPISSSICHLTNESDGHTTSLYGIGFGPFIITNKHLFRRSNGTLVVQSLHGVFKVKDTTTLQQHLVDGRDMIIIRMPKDFPPFPQKLKFREPQREERICLVTTNFQTKSMSSMVSDTSCTFPSGDGIFWKHWIQTKDGQCGSPLVSTRDGFIVGIHSASNFTNTNNYFTSVPKNFMELLTNQEAQQWVSGWRLNADSVLWGGHKVFMVKPEEPFQPVKEATQL [N52S], the “area with substrate EALYFQS” value was found to be 0.071, the “area with substrate ECLYFQS” value came to 0.0617, the “area with substrate EDLYFQS” value is 0.0989 and the “area with substrate EELYFQS” value amounted to 0.0793. Further, the “area with substrate EFLYFQS” value turned out to be 0.115, the “area with substrate EGLYFQS” value came out at 0.0693, the “area with substrate EHLYFQS” value is 0.0699 and the “area with substrate EILYFQS” value amounted to 0.0689. Moreover, the “area with substrate EKLYFQS” value is 0.0679, the “area with substrate EMLYFQS” value came out at 0.0912, the “area with substrate EPLYFQS” value was 0.0742 and the “area with substrate EQLYFQS” value was determined as 0.0741. Further, the “area with substrate ERLYFQS” value worked out at 0.0999, the “area with substrate ESLYFQS” value is 0.074, the “area with substrate ETLYFQS” value stood at 0.103 and the “area with substrate EVLYFQS” value came out at 0.0867.
Consider MGESLFKGPRDYNPISSSICHLTNESDGHTTSLYGIGFGPFIITNKHLFRRTNGTLVVQSLHGVFKVKDTTTLQQHLVDGRDMIIIRMPKDFPPFPQKLKFREPQREERICLVTTNFQTKSMSSMVSDTSCTFPSGDGIFWKHWIQTKDGQCGSPLVSTRDGFIVGIHSASNFTNTNNYFTSVPKNFMELLTNQEAQQWVSGWRLNADSVLWGGHKVFMVKPEEPFQPVKEATQL [N52T], for which the “area with substrate EALYFQS” value came to 0.116, the “area with substrate ECLYFQS” value is 0.0801, the “area with substrate EDLYFQS” value is 0.0664 and the “area with substrate EELYFQS” value was 0.0989. Further, the “area with substrate EGLYFQS” value stood at 0.0799, the “area with substrate EHLYFQS” value is 0.0765, the “area with substrate EILYFQS” value turned out to be 0.067 and the “area with substrate EKLYFQS” value amounted to 0.0722. In addition, the “area with substrate ELLYFQS” value amounted to 0.0728, the “area with substrate EMLYFQS” value turned out to be 0.0876, the “area with substrate EPLYFQS” value was determined as 0.0738 and the “area with substrate EQLYFQS” value was 0.091. The “area with substrate ERLYFQS” value stood at 0.0779, the “area with substrate ESLYFQS” value worked out at 0.0711, the “area with substrate EVLYFQS” value was 0.0812 and the “area with substrate EWLYFQS” value was determined as 0.0672.
In the case of MGESLFKGPRDYNPISSSICHLTNESDGHTTSLYGIGFGPFIITNKHLFRRNNGTLKVQSLHGVFKVKDTTTLQQHLVDGRDMIIIRMPKDFPPFPQKLKFREPQREERICLVTTNFQTKSMSSMVSDTSCTFPSGDGIFWKHWIQTKDGQCGSPLVSTRDGFIVGIHSASNFTNTNNYFTSVPKNFMELLTNQEAQQWVSGWRLNADSVLWGGHKVFMVKPEEPFQPVKEATQL [V57K], the “area with substrate EALYFQS” value is 0.0857, the “area with substrate ECLYFQS” value was determined as 0.105, the “area with substrate EDLYFQS” value came out at 0.159 and the “area with substrate EELYFQS” value stood at 0.123. Also, the “area with substrate EFLYFQS” value was determined as 0.0909, the “area with substrate EGLYFQS” value amounted to 0.109, the “area with substrate EHLYFQS” value was 0.0941 and the “area with substrate EILYFQS” value is 0.112. Further, the “area with substrate EKLYFQS” value came out at 0.123, the “area with substrate ELLYFQS” value was 0.088, the “area with substrate EMLYFQS” value was found to be 0.094 and the “area with substrate EPLYFQS” value came to 0.0968. Besides, the “area with substrate EQLYFQS” value is 0.124, the “area with substrate ERLYFQS” value was 0.135, the “area with substrate ESLYFQS” value is 0.109 and the “area with substrate ETLYFQS” value was 0.113.
For the variant MGESLFKGPRDYNPISSSICHLTNESDGHTTSLYGIGFGPFIITNKHLFRRNNGILVVQSLHGVFKVKDTTTLQQHLVDGRDMIIIRMPKDFPPFPQKLKFREPQREERICLVTTNFQTKSMSSMVSDTSCTFPSGDGIFWKHWIQTKDGQCGSPLVSTRDGFIVGIHSASNFTNTNNYFTSVPKNFMELLTNQEAQQWVSGWRLNADSVLWGGHKVFMVKPEEPFQPVKEATQL [T55I], the “area with substrate EALYFQS” value was 0.108, the “area with substrate ECLYFQS” value amounted to 0.0997, the “area with substrate EDLYFQS” value stood at 0.0864 and the “area with substrate EELYFQS” value was 0.11. The “area with substrate EGLYFQS” value amounted to 0.0841, the “area with substrate EHLYFQS” value is 0.092, the “area with substrate EILYFQS” value stood at 0.0955 and the “area with substrate EMLYFQS” value turned out to be 0.0956. Moreover, the “area with substrate ERLYFQS” value was 0.0954, the “area with substrate ESLYFQS” value was 0.0746 and the “area with substrate EVLYFQS” value worked out at 0.097.
In the case of MGESLFKGPRDYNPISSSICHLTNESDGHTTSLYGIGFGPFIITNKHLFRRNNGELVVQSLHGVFKVKDTTTLQQHLVDGRDMIIIRMPKDFPPFPQKLKFREPQREERICLVTTNFQTKSMSSMVSDTSCTFPSGDGIFWKHWIQTKDGQCGSPLVSTRDGFIVGIHSASNFTNTNNYFTSVPKNFMELLTNQEAQQWVSGWRLNADSVLWGGHKVFMVKPEEPFQPVKEATQL [T55E], the “area with substrate EALYFQS” value was found to be 0.124, the “area with substrate ECLYFQS” value was found to be 0.101, the “area with substrate EELYFQS” value is 0.115 and the “area with substrate EFLYFQS” value came out at 0.0891. Moreover, the “area with substrate EHLYFQS” value is 0.141, the “area with substrate EILYFQS” value was found to be 0.101, the “area with substrate EKLYFQS” value came to 0.0953 and the “area with substrate ELLYFQS” value is 0.113. Further, the “area with substrate EMLYFQS” value is 0.105, the “area with substrate EPLYFQS” value was determined as 0.117, the “area with substrate EQLYFQS” value was 0.127 and the “area with substrate ERLYFQS” value amounted to 0.0965. Further, the “area with substrate ETLYFQS” value came out at 0.102, the “area with substrate EVLYFQS” value came out at 0.0905 and the “area with substrate EWLYFQS” value is 0.115.
